# Reference: the antibiotic and cytotoxicity screens of Wong et al. (2023)
# This is one part of the list.
# System: HepG2
# Assay: cytotoxicity call (relative viability < 0.9)
# Settings: 10 µM
row,SMILES,cytotoxicity call
1,C[C@@H]1CN([C@H](C)CO)C(=O)c2cc(C#Cc3ccccc3F)cnc2O[C@@H]1CN(C)S(=O)(=O)c1ccccc1,inactive
2,CCS(=O)(=O)Nc1ccc2c(c1)C(=O)N(C)[C@H]1CC[C@@H](CC(=O)NCCOC)O[C@@H]1CO2,inactive
3,C[C@H](CO)N1C[C@H](C)[C@@H](CN(C)CC2CCCCC2)Oc2ccc(NC(=O)Nc3ccc(C(F)(F)F)cc3)cc2C1=O,inactive
4,CCCCCN1C/C=C\CCC(=O)N(C)[C@H](C)[C@@H](c2ccccc2)OC(=O)[C@@H]2[C@@H]3C=C[C@]4(O3)[C@H](C1=O)N(c1ccccc1Cl)C(=O)[C@@H]24,inactive
5,O=C(C[C@@H]1C=C[C@H](NC(=O)c2cccnc2)[C@@H](CO)O1)NCCN1CCCCC1,inactive
6,C[C@@H]1CN([C@@H](C)CO)C(=O)c2cccc(NS(C)(=O)=O)c2O[C@H]1CN(C)C(=O)Nc1ccc2c(c1)OCO2,inactive
7,C[C@H](CO)N1C[C@H](C)[C@H](CN(C)Cc2cccc(C(=O)O)c2)OCc2ccccc2-c2c(n(C)c3ccccc23)C1=O,inactive
8,C[C@H]1CN([C@@H](C)CO)S(=O)(=O)c2ccc(C3=CCCC3)cc2O[C@@H]1CN(C)C(=O)c1cnccn1,inactive
9,COC(=O)c1c2oc(c1C(=O)OC)C(=O)N(C)Cc1cn(nn1)C[C@H](Cc1ccccc1)NC(=O)N[C@H](CO)CC2,inactive
10,C[C@H](CO)N1C[C@H](C)[C@H](CN(C)S(=O)(=O)c2cn(C)cn2)Oc2ccc(NS(=O)(=O)c3ccc(F)cc3)cc2CC1=O,inactive
11,C[C@@H]1CCCCO[C@@H](CN(C)C(=O)Nc2ccc3c(c2)OCO3)[C@H](C)CN([C@H](C)CO)C(=O)c2cc(NC(=O)Nc3ccc(C(F)(F)F)cc3)ccc2O1,inactive
12,C[C@@H]1CN([C@@H](C)CO)C(=O)c2cc(NS(=O)(=O)c3cn(C)cn3)ccc2O[C@@H]1CN(C)Cc1ccncc1,inactive
13,COc1ccc(NC(=O)N(C)C[C@H]2OCc3ccccc3-c3c(n(C)c4ccccc34)C(=O)N([C@H](C)CO)C[C@@H]2C)c(OC)c1,inactive
14,Cc1noc(C)c1NC(=O)N(C)C[C@@H]1Oc2ccc(NC(=O)Nc3cccc4ccccc34)cc2CC(=O)N([C@@H](C)CO)C[C@@H]1C,inactive
15,COc1cccc(C(=O)Nc2ccc3c(c2)C(=O)N(C)[C@H]2CC[C@@H](CC(=O)NCC4CC4)O[C@H]2CO3)c1,inactive
16,COc1cc(C(C)=O)ccc1O,inactive
17,[O-][n+]1onc2c1CCc1c-2nn(-c2ccccc2)[n+]1[O-],inactive
18,Cc1ccc(S(=O)(=O)N2C[C@@H](O)COC[C@H]3O[C@@H](CC(=O)NCc4ccc5c(c4)OCO5)CC[C@@H]32)cc1,inactive
19,Cc1cc2nc(C(=O)N[C@H]3CCN(C)C3)cc(-c3ccccc3Cl)c2c(C)c1-c1ccc(CO)cc1,inactive
20,C[C@H](CO)N1C[C@H](C)[C@@H](CN(C)S(C)(=O)=O)Oc2ccc(NS(=O)(=O)c3ccc(F)cc3)cc2C1=O,inactive

row,SMILES,cytotoxicity call
1,O=C(/C=C/c1ccc(O)c(O)c1)O[C@]1(C(=O)O)C[C@@H](O)[C@H](O)[C@H](O)C1,inactive
2,CCCCC/C=C\C/C=C\C/C=C\CCCCCCC(=O)O,inactive
3,COc1ccc(S(=O)(=O)N[C@H]2CC[C@H](CC(=O)N3CCN(c4ccccc4)CC3)O[C@H]2CO)cc1,inactive
4,CC(C)Oc1oc(C(=O)NC2CCCCC2)c(-c2ccc(Cl)cc2)c1S(=O)(=O)c1ccc(Cl)cc1,inactive
5,COc1cc2c(Oc3ccc(NC(=O)C4(C(=O)Nc5ccc(F)cc5)CC4)cc3F)ccnc2cc1OCCCN1CCOCC1,active
6,COc1ccc(S(=O)(=O)Nc2cccc3c2O[C@@H](CN(C)C(=O)Nc2c(C)noc2C)[C@@H](C)CN([C@@H](C)CO)C3=O)cc1,inactive
7,COc1ccc(C(=O)Nc2ccc3c(c2)C(=O)N(C)[C@H]2CC[C@H](CC(=O)NCC4CC4)O[C@H]2CO3)cc1,inactive
8,CN(C)CC(=O)N1CCO[C@]2(COCCN(c3cncnc3)C2)C1,inactive
9,COc1ccc(NC(=O)N(C)C[C@H]2Oc3c(NC(=O)c4cc(C)nn4C)cccc3C(=O)N([C@@H](C)CO)C[C@@H]2C)cc1,inactive
10,C[C@@H]1CN([C@H](C)CO)C(=O)c2cc(-c3ccc(C(=O)N(C)C)cc3)cnc2O[C@H]1CN(C)C(=O)c1cccnc1,inactive
11,C=CCNC(=O)[C@H]1[C@@H]2C(=O)O[C@@H](c3ccccc3)[C@@H](c3ccccc3)N2[C@@H](c2ccc(O)cc2)[C@]12C(=O)Nc1ccc(C#CC3=CCCCC3)cc12,inactive
12,COc1ccc(CN(C)C[C@@H]2Oc3c(NC(=O)C4CCOCC4)cccc3C(=O)N([C@@H](C)CO)C[C@H]2C)cc1,inactive
13,COc1ccc2c3c([nH]c2c1)[C@@H](CO)N(C[C@]13CCN(CC1)C(=O)Nc1ccc(cc1)F)C(=O)c1ccc(cc1)F,inactive
14,O=C(Nc1ncc(SCCN2CCCC2)s1)[C@]1(c2ccc(S(=O)(=O)C3CC3)cc2)C[C@H]1C1CCCCC1,active
15,COc1ccc(C2=NS(=O)(=O)N(C)C(C(=O)N3CCC(C(N)=O)CC3)=C2)cc1,inactive
16,Cc1ccc(S(=O)(=O)Nc2ccc3c(c2)C(=O)N([C@H](C)CO)C[C@H](C)[C@@H](CN(C)C(=O)Nc2ccc(F)cc2)OCCCC[C@H](C)O3)cc1,active
17,C[C@H](CO)N1C[C@H](C)[C@H](CN(C)C(=O)CN2CCOCC2)Oc2ncc(/C=C/c3ccccc3)cc2C1=O,inactive
18,CNC(=O)c1c(F)cccc1Nc1nc(Nc2cc3c(cc2OC)CCN3C(=O)CN(C)C)nc2[nH]ccc12,active
19,C[C@@H]1CN([C@H](C)CO)C(=O)c2cccc(NS(=O)(=O)c3ccccc3)c2O[C@H]1CN(C)CC1CC1,inactive
20,C[C@H]1CN([C@@H](C)CO)C(=O)c2cc(NS(=O)(=O)c3ccccc3)ccc2O[C@@H]1CN(C)Cc1ccc(Oc2ccccc2)cc1,inactive
